Some of the results follow.

Results on 54 sequences are retold here after PMC7819943, “Rice protein-binding microarrays: a tool to detect cis-acting elements near promoter regions in rice”.

In the test the target is T1, OsWOX13 (Oryza sativa, UniProt Q5QMM3 1-267).
T1 sequence: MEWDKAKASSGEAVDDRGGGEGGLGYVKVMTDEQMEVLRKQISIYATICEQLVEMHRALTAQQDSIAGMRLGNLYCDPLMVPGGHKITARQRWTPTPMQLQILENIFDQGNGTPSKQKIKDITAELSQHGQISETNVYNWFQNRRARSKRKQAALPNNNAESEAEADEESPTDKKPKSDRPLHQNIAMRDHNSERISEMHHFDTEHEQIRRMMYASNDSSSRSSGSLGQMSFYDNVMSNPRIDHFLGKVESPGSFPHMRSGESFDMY
Nature of the test: protein-binding microarray (RPBM); PBS, 2% BSA, 51.3 ng/ul salmon testes DNA, 50 uM zinc acetate, 200 nM TF, 25 C, 1 h; high values mean tight binding. To be noted: protein: recombinant; tags: N-terminal polyhistidine and DsRed monomer fusion (pET32a); label: CyDye5-dUTP incorporated in the synthesized complementary strand; 3' TTTTT single-stranded linker to array surface; dsDNA, one strand shown. The method in brief:
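The binding signal is fluorescence intensity per array feature (arbitrary units). Readings came from an Axon 4000B scanner after a washed, 2% BSA-blocked, double-stranded custom Agilent array had been incubated for 1 h at 25 °C with 200 nM protein and 50 µM zinc acetate. The protein was a Ni–NTA-purified transcription factor fused N-terminally to polyhistidine and DsRed, expressed in E. coli BL21-CodonPlus.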
Consider “TTCTAACACCAAAATTAATTTCATTATTAGTAATATAGTACGGAGTCACCTAGTGCAG”, for which the binding signal is 5440 fluorescence intensity (a.u.). The result for “ATACAGATTATAAATAATTTGGAGGCTTAGAAATTTCCAGCGGAGTCACCTAGTGCAG” reads 12200 fluorescence intensity (a.u.); that for “TTTAAAATTTAAAACTTAAATTGAAAGTTTTCAAATCTAACGGAGTCACCTAGTGCAG”, 19700 fluorescence intensity (a.u.).

As for “CTAGTGTCAATCAATGAATCAAGCGGCCACCAACCTACCTCGGAGTCACCTAGTGCAG”, the binding signal was 34400 fluorescence intensity (a.u.). The result for “ACTTAATTATTGTTATGATTCATTCATGCATAAAGCGGTGCGGAGTCACCTAGTGCAG” reads 55700 fluorescence intensity (a.u.); that for “ACAAGATTGGCTATATGGGCATCGATAAATGTAAATATTACGGAGTCACCTAGTGCAG”, 19300 fluorescence intensity (a.u.); that for “CATGTAATTATCCACATCCCTGGAAGATAAGTACTACTACCGGAGTCACCTAGTGCAG”, 10700 fluorescence intensity (a.u.). As to “TCTCTTTGATTATCTCACTATCTAGTTGGGTGCACAAACACGGAGTCACCTAGTGCAG”, the binding signal was 13200 fluorescence intensity (a.u.).

As to “AATATGATTGCCTTAGTGTTAGGATCAGATCTTGATGTAACGGAGTCACCTAGTGCAG”, the binding signal is 31900 fluorescence intensity (a.u.).

Regarding “GTATAGTAACAAATTTGTGATAGATGCAATGAGAGACCGGCGGAGTCACCTAGTGCAG”, the binding signal was 12400 fluorescence intensity (a.u.). Take “AATTGATTTACAATACTTCCTCCGTTTCACAATATAAGTGCGGAGTCACCTAGTGCAG”: the binding signal is 24700 fluorescence intensity (a.u.). As for “TAATTAATCGATGATTAGTCTATGTAATGCTACAGTAAACCGGAGTCACCTAGTGCAG”, the binding signal is 21400 fluorescence intensity (a.u.). On to “ATACGATTATATTAATCTCTCTAAACGTCGTGGGAGTGCTCGGAGTCACCTAGTGCAG”, for which the binding signal is 3290 fluorescence intensity (a.u.). As for “GTTTGGGATGTCGCGGGGATTTAGGGGCGGTGGGTGGTTTCGGAGTCACCTAGTGCAG”, the binding signal is 10900 fluorescence intensity (a.u.). With “CAGCTTAAATAAATTGATAAACATGAATTAACTCATGCTTCGGAGTCACCTAGTGCAG”, the binding signal is 35800 fluorescence intensity (a.u.). As for “CGGAGAAAATAGACAAGTTAAGAATCAACATGGAAAATGCCGGAGTCACCTAGTGCAG”, the binding signal was 3420 fluorescence intensity (a.u.).

In the case of “ATCCATGTGATTTTGTCTAACTTGGATCATAATAGATAGACGGAGTCACCTAGTGCAG”, the binding signal is 5830 fluorescence intensity (a.u.).

In the case of “TTGATTTTCAATCTAATAAACTTATTTTACTTTCTTTCTTCGGAGTCACCTAGTGCAG”, the binding signal was 7540 fluorescence intensity (a.u.).

As for “TCCCTGACAGGTGGGCCACCTTTGGGCTTTCCCGTGGGCGCGGAGTCACCTAGTGCAG”, the binding signal is 6150 fluorescence intensity (a.u.). In the case of “CTTTTGTCCTTTATGATTGGTCTATTGAGATGTCTGGGTCCGGAGTCACCTAGTGCAG”, the binding signal is 10900 fluorescence intensity (a.u.). As for “TTTTAATTGAAATGCCACCTAAGCGCCACATCAACACCACCGGAGTCACCTAGTGCAG”, the binding signal was 35700 fluorescence intensity (a.u.). The result for “CCAAACCCACCTCGCTAATTAGGGTTCTTCTTCCTCCTCCCGGAGTCACCTAGTGCAG” reads 4890 fluorescence intensity (a.u.); that for “TTTATTTGATTTATGCAATCACATGTGAAATGTTACTGCACGGAGTCACCTAGTGCAG”, 26400 fluorescence intensity (a.u.). In the case of “TTCTTGAATGATTTGCTAATTGCTACATGTATCCTCTTTCCGGAGTCACCTAGTGCAG”, the binding signal is 20200 fluorescence intensity (a.u.). Take “AGGGGAGTTGATTACAGGGAGTTACAGGGTTCCAAGCTTTCGGAGTCACCTAGTGCAG”: the binding signal is 6890 fluorescence intensity (a.u.). Take “TTTACTCAATTGAGGTTAATTAATTGCTAATGATAGTAATCGGAGTCACCTAGTGCAG”: the binding signal was 20900 fluorescence intensity (a.u.). The result for “TCCTAATCATTATAATTCCAAACTAAGTTCGCTTTGCCCACGGAGTCACCTAGTGCAG” reads 15800 fluorescence intensity (a.u.). The result for “GTTCCTTCATTTTAGACGTTCAATCAACTTTTGAATTCTACGGAGTCACCTAGTGCAG” reads 4720 fluorescence intensity (a.u.); that for “ACTCACACACAGTAATTAACAGGGATATTGGGATCACAAGCGGAGTCACCTAGTGCAG”, 7640 fluorescence intensity (a.u.). As to “ATAATTATACGAGTATACAAATGACGAATTAAGTATTTGTCGGAGTCACCTAGTGCAG”, the binding signal was 3660 fluorescence intensity (a.u.). Consider “TAAAAGACAAATTTAATTAAAACAGTTTCCTAAGACATTCCGGAGTCACCTAGTGCAG”, for which the binding signal is 5710 fluorescence intensity (a.u.).

Turning to “CTGTTATGATTCTAATTTTATAAAATTCGAGAGACATGGTCGGAGTCACCTAGTGCAG”, the binding signal is 6330 fluorescence intensity (a.u.).

As for “ATGATGATGATCCTGATCCTGATCTTCCTCCTCGATCGACCGGAGTCACCTAGTGCAG”, the binding signal was 3400 fluorescence intensity (a.u.).

Regarding “TTCTACATTCAATCAATCATGCACAGGAGTAGGGTATTACCGGAGTCACCTAGTGCAG”, the binding signal was 16400 fluorescence intensity (a.u.). Take “CCCTCCAATCCTACATGTTGATAGATGTAATCCCTACCGTCGGAGTCACCTAGTGCAG”: the binding signal was 10800 fluorescence intensity (a.u.). “CGCCCACAAATTGGACCGCATCTTCTCAAACTCTGCATTGCGGAGTCACCTAGTGCAG”: the binding signal was 12100 fluorescence intensity (a.u.). Take “TCAAAATTGAAATAATAACTAACCAAGTGACAGAAATATTCGGAGTCACCTAGTGCAG”: the binding signal was 4280 fluorescence intensity (a.u.). Consider “TCATAATTTATGTTAATACAACATTTTGAAGTTCTGATTGCGGAGTCACCTAGTGCAG”, for which the binding signal was 17400 fluorescence intensity (a.u.). With “ATTAAATGGAATTACTGATAGATGAGGTGTGCTGATAGAACGGAGTCACCTAGTGCAG”, the binding signal is 26200 fluorescence intensity (a.u.). “ATTGACTGGCATTCTTGGTGTTTCGTGGTCAGGAGTACGACGGAGTCACCTAGTGCAG”: the binding signal is 21100 fluorescence intensity (a.u.).

As for “GGCTCAATTAGGAAATTACCCTCGCCATTTTGACGTAGTGCGGAGTCACCTAGTGCAG”, the binding signal is 14300 fluorescence intensity (a.u.).

“CTTGACTGCACATATGCAAAGATATTTTCTACAGAAGTATCGGAGTCACCTAGTGCAG”: the binding signal is 6610 fluorescence intensity (a.u.).

With “ATGTTAAATCACTGTCATTGGACACAAGCGGATCGAGCCGCGGAGTCACCTAGTGCAG”, the binding signal is 4060 fluorescence intensity (a.u.). On to “GCACACTAATAGATGCCATTCTTTTCTCTAATTATGCTCTCGGAGTCACCTAGTGCAG”, for which the binding signal was 8160 fluorescence intensity (a.u.). As to “CTGATTTGTTCTGTCTTGCTAAGATTAGGGACGATGATTTCGGAGTCACCTAGTGCAG”, the binding signal was 14300 fluorescence intensity (a.u.). Turning to “ACTTTGATAGAAGTCAAATTATTTCAAGTTTAACTAAGTTCGGAGTCACCTAGTGCAG”, the binding signal was 23500 fluorescence intensity (a.u.). Consider “AGGGTAATTTATCCGGTTTCAATAGTTTAGAGTATCAAATCGGAGTCACCTAGTGCAG”, for which the binding signal is 5120 fluorescence intensity (a.u.). The result for “GATCCAAACTCTTAACCTCCAATCAAATCTAACTCGCTAACGGAGTCACCTAGTGCAG” reads 4100 fluorescence intensity (a.u.); that for “AAATCCCCTCTGATTAGAAAGAGAGAGTGAAAGCGAGCCACGGAGTCACCTAGTGCAG”, 3200 fluorescence intensity (a.u.). “TGTGCTAATTTCAGTCTGATGTGGTCCACAGGCCAACACCCGGAGTCACCTAGTGCAG”: the binding signal is 13000 fluorescence intensity (a.u.). Turning to “AGGCGATAATCCTAATTTTGAATGGAAACACTGCAGGCGACGGAGTCACCTAGTGCAG”, the binding signal is 5040 fluorescence intensity (a.u.). With “CACTATAATTAAACAAACAAACTTCAAATTCAAATTCAGCCGGAGTCACCTAGTGCAG”, the binding signal was 16800 fluorescence intensity (a.u.). For “CGGGCGGGGCGGGGCGGGTTCGCTCGTCGGATGTGTGGATCGGAGTCACCTAGTGCAG”, the binding signal was 4670 fluorescence intensity (a.u.).

As for “AACTTAGATTAGCCAGTATATATTTGTATATTTTGGAAATCGGAGTCACCTAGTGCAG”, the binding signal is 6360 fluorescence intensity (a.u.).
